“And” between values parts separate entries of the source, which are not always exact repeats. Identical values can stand only once. Inconclusive means that the source gave no clear call. Such entries were picked first, then a sample of the others. Potencies beside an inconclusive call are fits to weak or partial responses and may not hold up. The source made the active and inactive calls. Unless noted, calls follow the shape of the dose curve; as a rule, active = well fitted curve in the direction sought with a large enough effect in the repeat runs; inconclusive = weak or mixed curves; inactive = no such curve, though single readings can be large; an effect the other way counts as inactive or inconclusive.
Columns and labels:
[1] = target: Progesterone receptor (Homo sapiens) (UniProt P06401); assay: qHTS assay to identify small molecule agonists of the progesterone receptor (PR) signaling pathway (AID 1346784; calls by dose curve; also: nearly all actives have a fitted effect of over 30% in size; as to activation: % is scaled to controls: 0 for no effect and ±100 for the full control effect); conditions: PR-UAS-bla HEK293T, beta-lactamase FRET ratio, 16 h; activation: at 92.4 µM (top of the series) unless noted
UniProt P06401, sequence (P06401 whole entry, looked up): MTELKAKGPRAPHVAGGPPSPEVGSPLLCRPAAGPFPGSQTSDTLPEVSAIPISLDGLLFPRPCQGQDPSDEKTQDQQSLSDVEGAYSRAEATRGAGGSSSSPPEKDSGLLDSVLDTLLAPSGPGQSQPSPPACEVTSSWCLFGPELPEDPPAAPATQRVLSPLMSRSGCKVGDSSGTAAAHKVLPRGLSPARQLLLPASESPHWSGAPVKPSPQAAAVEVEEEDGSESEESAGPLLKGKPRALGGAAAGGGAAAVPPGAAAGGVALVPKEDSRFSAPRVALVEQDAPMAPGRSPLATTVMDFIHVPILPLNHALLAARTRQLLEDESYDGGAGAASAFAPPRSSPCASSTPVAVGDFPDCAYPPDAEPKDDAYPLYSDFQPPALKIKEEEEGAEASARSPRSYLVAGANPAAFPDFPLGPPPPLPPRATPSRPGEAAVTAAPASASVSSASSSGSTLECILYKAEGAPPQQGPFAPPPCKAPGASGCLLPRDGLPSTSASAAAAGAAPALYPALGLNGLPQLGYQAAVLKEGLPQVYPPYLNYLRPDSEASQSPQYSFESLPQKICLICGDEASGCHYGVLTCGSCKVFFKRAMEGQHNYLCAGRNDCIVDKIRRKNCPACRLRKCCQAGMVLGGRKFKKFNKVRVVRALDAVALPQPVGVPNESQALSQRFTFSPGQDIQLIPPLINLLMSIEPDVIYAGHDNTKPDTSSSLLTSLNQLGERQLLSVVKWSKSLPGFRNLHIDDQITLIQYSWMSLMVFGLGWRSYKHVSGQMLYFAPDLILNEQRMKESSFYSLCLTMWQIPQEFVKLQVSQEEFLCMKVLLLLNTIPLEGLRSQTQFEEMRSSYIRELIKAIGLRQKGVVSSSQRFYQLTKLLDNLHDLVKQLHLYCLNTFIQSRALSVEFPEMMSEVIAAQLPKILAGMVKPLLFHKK
Summary of the method: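 Seed PR-UAS-bla HEK 293T cells (2% charcoal-stripped FBS), incubate 6 hr at 37C; add compounds in DMSO, 16 hr at 37C; add LiveBLAzer B/G substrate, 2 hr RT; read fluorescence intensity.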

[2] = target: Progesterone receptor (Homo sapiens) (UniProt P06401); assay: qHTS assay to identify small molecule antagonists of the progesterone receptor (PR) signaling pathway (AID 1346795; active = well fitted inhibition curve with a large enough effect in the signal ratio in the repeat runs, not every such curve was filed as active; inconclusive = weak or mixed curves; the % refers to the signal ratio); conditions: PR-UAS-bla HEK293T, beta-lactamase FRET ratio, 16 h; activity change, negative = inhibition: at 92.4 µM (top of the series) unless noted
Summary of the method: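 Screening used a GripTite HEK293T line with PR-responsive UAS-beta-lactamase. Cells were challenged with compound in the presence of 1 nM R5020 final for 16 hr at 37C; B/G FRET substrate, 2 hr room temperature, fluorescence.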

[3] = qHTS assay to identify small molecule antagonists of the progesterone receptor (PR) signaling pathway - cell viability counter screen (AID 1346798); also: nearly all actives have a fitted effect of over 50% in size
Summary of the method: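 Measures cytotoxicity in parallel with the PR antagonist reporter read: HEK293T PR-UAS-bla cells get compound and R5020 for 16 hr, and remaining viable cells are quantified by CellTiter-Glo luminescence.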

[4] = qHTS assay to identify small molecule agonists of the progesterone receptor (PR) signaling pathway - cell viability counter screen (AID 1346799; calls by dose curve; also: nearly all actives have a fitted effect of over 45% in size)
Summary of the method: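 Using the same plates as the PR reporter screen, HEK293T PR-UAS-bla cells received compounds for 16 hr at 37C and were then lysed with CellTiter-Glo; luminescence was read 30 min later at room temperature.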

[5] = qHTS assay to identify small molecule antagonists of the TGF-beta/Smad signaling pathway - cell viability counter screen (AID 1346824); also: nearly all actives have a fitted effect of over 50% in size
Summary of the method: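 Cytotoxicity counter-screen run in the same wells as the beta-lactamase Smad reporter read: CellTiter-Glo luminescence after 30 min at room temperature. HEK 293T SBE-bla cells had 5 hr compound exposure at 37 C with TGF-beta1 (0.25 ng/mL stock).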

[6] = qHTS assay to identify small molecule agonists of the TGF-beta/Smad signaling pathway - cell viability counter screen (AID 1346829); also: nearly all actives have a fitted effect of over 45% in size
Summary of the method: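 Same-well cytotoxicity: CellTiter-Glo added after the 2 hr room-temperature beta-lactamase substrate step, luminescence measured 30 min later; cells had 5 hr of compound at 37 C.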

[7] = qHTS assay to identify small molecule agonists of the TGF-beta/Smad signaling pathway (AID 1346859; active = well fitted activation curve with a large enough effect in the signal ratio in the repeat runs, not every such curve was filed as active; inconclusive = weak or mixed curves; the % refers to the signal ratio); conditions: SBE-bla HEK293T, TGF-beta/Smad beta-lactamase reporter, 5 h; activation: at 76.8 µM (top of the series)
Summary of the method: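 Beta-lactamase reporter activity downstream of Smad binding elements was measured in stably transfected HEK 293T cells; compounds were incubated for 5 hr, substrate for 2 hr at room temperature.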

[8] = target: Thyrotropin-releasing hormone receptor (Homo sapiens) (UniProt P34981); assay: qHTS assay to identify small molecule antagonists of the thyrotropin-releasing hormone receptor (TRHR) signaling pathway (AID 1346877; active = well fitted inhibition curve with a large enough effect in the repeat runs, not every such curve was filed as active; inconclusive = weak or mixed curves)
UniProt P34981, sequence (P34981 whole entry, looked up): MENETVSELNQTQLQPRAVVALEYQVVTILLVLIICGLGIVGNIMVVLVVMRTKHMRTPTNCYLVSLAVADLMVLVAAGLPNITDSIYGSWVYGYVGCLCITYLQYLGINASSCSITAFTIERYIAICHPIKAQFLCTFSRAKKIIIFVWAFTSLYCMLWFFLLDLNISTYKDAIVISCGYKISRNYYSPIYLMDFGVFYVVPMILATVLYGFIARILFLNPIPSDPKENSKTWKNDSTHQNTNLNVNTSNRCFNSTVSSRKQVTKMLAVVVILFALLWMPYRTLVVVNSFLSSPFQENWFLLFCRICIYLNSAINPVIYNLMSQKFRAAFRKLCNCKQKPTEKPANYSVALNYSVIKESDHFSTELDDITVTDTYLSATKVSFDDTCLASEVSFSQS
Summary of the method: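 Intracellular calcium fluorescence, read kinetically every second over 3 min, reports TRH-evoked signalling in HEK293 cells carrying TRHR. Test compounds were added 5 min ahead of a 1 nM TRH challenge.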

[9] = Human pregnane X receptor (PXR) small molecule agonists, qHTS cell viability counter screen (AID 1346977); also: nearly all actives have a fitted effect of over 50% in size
Summary of the method: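 After a 5hr pre-incubation, PXR-Luc HepG2 cells received compounds plus positive control in DMSO and were kept 24hr at 37C. Cell viability was quantified by fluorescence from CellTiter-Fluor added for the final hour.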

[10] = qHTS assay to identify small molecule antagonists of the TGF-beta/Smad signaling pathway (AID 1346924; active = well fitted inhibition curve with a large enough effect in the signal ratio in the repeat runs, not every such curve was filed as active; inconclusive = weak or mixed curves; the % refers to the signal ratio); conditions: SBE-bla HEK293T, TGF-beta/Smad reporter, beta-lactamase ratio; activity, negative = inhibition: at 76.8 µM (top of the series) unless noted
Summary of the method: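 SBE-bla HEK 293T cells were plated overnight, then received compound in DMSO plus TGF-beta1 (added as a 0.25 ng/mL solution) and were incubated 5 h at 37 C. Beta-lactamase reporter activity was read after 2 h at room temperature with LiveBLAzer B/G FRET substrate (ex 405, em 460/530 nm).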
Potency is read from the fitted curve at half-maximal effect; tags tell the direction and shape of the fitted curve or compound fluorescence and quenching.

CN1CCN(c2ccccc2/C=C2\SCCN(c3ccc(Cl)c(Cl)c3)C2=O)CC1
inconclusive: Potency [1] 68.6 µM [cytotoxic, single point] | Potency [2] 24.3 µM | Potency [3] 68.6 µM [cytotoxic, single point] | Potency [4] 68.6 µM [cytotoxic, single point] | Potency [5] 54.9 µM [cytotoxic, single point] | Potency [6] 54.9 µM [cytotoxic, single point] | Potency [7] 27.5 µM [rising, partial curve]

Cc1cc(O)c(C(C)(C)C)cc1Sc1cc(C(C)(C)C)c(O)cc1C
inconclusive: Potency [1] 21.6 µM [cytotoxic, full curve] | Potency [2] 43.2 µM [falling, partial curve] | Potency [7] 61.5 µM [single point] | Potency [8] 30.1 µM [inhibitor, partial curve, poor fit]
active: Potency [3] 30.6 µM | Potency [4] 27.3 µM | Potency [5] 48.9 µM | Potency [6] 34.6 µM

CCCCCN=C(N)N/N=C/c1c[nH]c2ccc(OC)cc12
inconclusive: Potency [1] 16.8 µM [falling, partial curve, poor fit] | Potency [2] 29.8 µM [falling, partial curve] | Potency [7] 30.1 µM [falling, single point]
active: Potency [3] 23.7 µM | Potency [4] 16.8 µM | Potency [5] 26.8 µM | Potency [6] 23.9 µM

Cc1cc(O)c(C(C)(C)C)cc1C(C)(C)C
active: Potency [4] 48.6 µM | Potency [6] 49 µM
inconclusive: Potency [1] 61.1 µM [cytotoxic, partial curve, poor fit] | Potency [2] 77 µM [falling, single point] | Potency [3] 68.6 µM [cytotoxic, single point] | Potency [5] 49 µM [cytotoxic] | Potency [8] 33.8 µM [inhibitor, single point] | Potency [9] 68.6 µM [cytotoxic, single point]

CCN(CC)c1ccc(N)cc1
inconclusive: Potency [1] 70.5 µM [cytotoxic, partial curve, poor fit] | Potency [2] 28.1 µM | Potency [5] 31.7 µM [cytotoxic, partial curve] | Potency [6] 22.5 µM [cytotoxic, full curve] | Potency [7] 50.3 µM [rising, single point] | Potency [10] 50.3 µM
active: Potency [3] 44.5 µM | Potency [4] 44.5 µM | Potency [9] 15.8 µM

CN(C)CCCN1c2ccccc2Sc2ccc(Cl)cc21
inconclusive: activation [1] -8.44% | Potency [5] 54.9 µM [cytotoxic, single point] | Potency [6] 54.9 µM [cytotoxic, single point] | Potency [7] 61.6 µM [falling, partial curve, poor fit]
active: Potency [2] 43.3 µM and 21.1 µM | Potency [3] 27.3 µM and 29.8 µM | Potency [4] 30.6 µM and 23.7 µM

CCCCCCCC/C=C\CCCCCCCCOCCO
inconclusive: Potency [1] 89.1 µM [cytotoxic, single point] | Potency [2] 89.1 µM [falling, single point] | Potency [7] 63.7 µM | Potency [8] 44 µM [inhibitor, single point] | Potency [10] 40.2 µM [rising, partial curve]
active: Potency [3] 31.6 µM | Potency [4] 25.1 µM | Potency [5] 63.7 µM | Potency [6] 63.7 µM | Potency [9] 15.9 µM

CCCOc1sc(C(=O)N2CCC(c3cc(CN)ccc3F)CC2)c(C)c1Br
inconclusive: Potency [1] 56 µM [cytotoxic, partial curve, poor fit] | Potency [2] 49.9 µM [falling, partial curve] | Potency [7] 56.5 µM
active: Potency [3] 25 µM | Potency [4] 19.9 µM | Potency [5] 50.4 µM | Potency [6] 44.9 µM | Potency [8] 27.6 µM

CCCN(CCC)c1c([N+](=O)[O-])cc(C(F)(F)F)c(N)c1[N+](=O)[O-]
inconclusive: Potency [1] 19.3 µM [cytotoxic, full curve] | Potency [2] 30.5 µM [falling, full curve] | Potency [5] 54.8 µM [cytotoxic, single point] | Potency [7] 43.5 µM [falling, partial curve] | Potency [8] 33.7 µM [inhibitor, single point]
active: Potency [3] 34.3 µM | Potency [4] 21.6 µM | Potency [6] 48.9 µM

CC(C)(C)CC(C)(C)c1ccccc1O
inconclusive: Potency [1] 61.4 µM [falling, partial curve, poor fit] | Potency [2] 68.9 µM [falling, single point] | Potency [3] 68.9 µM [cytotoxic, single point] | Potency [4] 68.9 µM [cytotoxic, partial curve, poor fit] | Potency [7] 55.2 µM [falling, single point]
active: Potency [5] 31.1 µM | Potency [6] 49.2 µM

NC(=O)C1(N2CCCCC2)CCN(CCCN2c3ccccc3CCc3ccc(Cl)cc32)CC1
active: Potency [2] 23.7 µM | Potency [3] 23.7 µM | Potency [4] 16.8 µM
inconclusive: Potency [1] 33.5 µM [cytotoxic, single point] | Potency [5] 26.8 µM [cytotoxic, single point] | Potency [6] 26.8 µM [cytotoxic, single point] | Potency [7] 16.9 µM [rising, partial curve] | Potency [10] 19 µM [rising, partial curve]

CC[C@H]1O[C@]2(CC[C@@H]1C)C[C@@H]1C[C@@H](C/C=C(\C)C[C@@H](C)/C=C/C=C3\CO[C@@H]4[C@H](O)C(C)=C[C@@H](C(=O)O1)[C@]34O)O2
active: Potency [3] 68 µM | Potency [5] 54.5 µM | Potency [6] 54.5 µM | Potency [9] 27.1 µM
inconclusive: Potency [1] 60.6 µM | Potency [2] 68 µM | Potency [4] 76.3 µM [cytotoxic, single point] | Potency [7] 61.1 µM [falling, single point]

CCN=C1C=CC(=C(c2ccc(N(CC)CC)cc2)c2ccc(N(CC)CC)cc2)c2ccccc21
active: Potency [5] 27.4 µM | Potency [6] 24.4 µM | Potency [9] 0.682 µM
inconclusive: Potency [1] 30.5 µM [cytotoxic, full curve] | Potency [2] 27.1 µM [falling, full curve] | Potency [3] 27.1 µM [cytotoxic, full curve, poor fit] | Potency [4] 27.1 µM [cytotoxic, full curve, poor fit] | Potency [7] 61.3 µM [single point] | Potency [8] 7.53 µM [inhibitor, partial curve, poor fit] | Potency [10] 61.3 µM [cytotoxic, single point]

COc1ccc(CN2CCN(C(c3ccc(F)cc3)c3ccc(F)cc3)CC2)c(OC)c1OC
active: Potency [3] 16.8 µM | Potency [4] 13.3 µM | Potency [5] 16.9 µM | Potency [6] 23.9 µM
inconclusive: activation [1] -15.1% [at 42.5 µM] | Potency [2] 13.3 µM [rising, single point] | Potency [7] 26.8 µM

CC/C(=C(/c1ccc(O)cc1)c1ccc(OCCN(C)C)cc1)c1ccccc1
inconclusive: Potency [1] 25.4 µM [cytotoxic, partial curve] | Potency [2] 45.2 µM [falling, single point] | Potency [5] 32.3 µM [cytotoxic] | Potency [6] 36.2 µM [cytotoxic] | Potency [7] 32.3 µM [rising, partial curve, poor fit]
active: Potency [3] 32 µM | Potency [4] 18 µM

COc1cc(/C=C/C(=O)CC(=O)/C=C/c2ccc(O)c(OC)c2)ccc1O
inconclusive: Potency [1] 30.8 µM [rising, partial curve] | Potency [2] 48.9 µM [rising, partial curve] | Potency [3] 69 µM [cytotoxic, single point] | Potency [4] 69 µM [cytotoxic, single point] | Potency [5] 24.7 µM [rising, partial curve] | Potency [6] 13.9 µM [rising, full curve, poor fit] | Potency [7] 43.9 µM [fluorescent, partial curve] | Potency [10] 42.3 µM [fluorescent]
active: Potency [9] 30.8 µM

NCc1cccc(C2CCN(C(=O)c3ccc(C#Cc4ccccc4F)o3)CC2)c1
inconclusive: activation [1] -13% | Potency [5] 54.9 µM [cytotoxic, single point] | Potency [6] 61.6 µM [cytotoxic, single point] | Potency [9] 68.6 µM [cytotoxic, single point]
active: Potency [2] 68.6 µM | Potency [3] 48.6 µM | Potency [4] 61.1 µM

CCCCCCCCNC(C)C(O)c1ccc(SC(C)C)cc1 (configuration not stated)
active: Potency [3] 29.8 µM | Potency [4] 29.8 µM | Potency [5] 21.3 µM | Potency [6] 23.9 µM
inconclusive: Potency [1] 29.8 µM [falling, single point] | Potency [2] 47.3 µM [falling, partial curve, poor fit] | Potency [7] 26.8 µM [single point]
